The values that follow come from paper PMC4336329 (PLoS ONE, 2015).

Screen size: about 310,000 compounds; about 14,000 (4.5%) showed an effect of 50% or more. Effects have a minus sign here. The list shows a part of the results.
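Also: peak tail current of the secondary pulse compared with the same well before compound.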

In this experiment the target is human ether-à-go-go-related gene (hERG) potassium channel (human, UniProt Q12809). The experiment in a line: primary screen, population patch clamp on CHO cells stably expressing hERG.
Chain of human ether-à-go-go-related gene (hERG) potassium channel (Q12809 whole entry, looked up): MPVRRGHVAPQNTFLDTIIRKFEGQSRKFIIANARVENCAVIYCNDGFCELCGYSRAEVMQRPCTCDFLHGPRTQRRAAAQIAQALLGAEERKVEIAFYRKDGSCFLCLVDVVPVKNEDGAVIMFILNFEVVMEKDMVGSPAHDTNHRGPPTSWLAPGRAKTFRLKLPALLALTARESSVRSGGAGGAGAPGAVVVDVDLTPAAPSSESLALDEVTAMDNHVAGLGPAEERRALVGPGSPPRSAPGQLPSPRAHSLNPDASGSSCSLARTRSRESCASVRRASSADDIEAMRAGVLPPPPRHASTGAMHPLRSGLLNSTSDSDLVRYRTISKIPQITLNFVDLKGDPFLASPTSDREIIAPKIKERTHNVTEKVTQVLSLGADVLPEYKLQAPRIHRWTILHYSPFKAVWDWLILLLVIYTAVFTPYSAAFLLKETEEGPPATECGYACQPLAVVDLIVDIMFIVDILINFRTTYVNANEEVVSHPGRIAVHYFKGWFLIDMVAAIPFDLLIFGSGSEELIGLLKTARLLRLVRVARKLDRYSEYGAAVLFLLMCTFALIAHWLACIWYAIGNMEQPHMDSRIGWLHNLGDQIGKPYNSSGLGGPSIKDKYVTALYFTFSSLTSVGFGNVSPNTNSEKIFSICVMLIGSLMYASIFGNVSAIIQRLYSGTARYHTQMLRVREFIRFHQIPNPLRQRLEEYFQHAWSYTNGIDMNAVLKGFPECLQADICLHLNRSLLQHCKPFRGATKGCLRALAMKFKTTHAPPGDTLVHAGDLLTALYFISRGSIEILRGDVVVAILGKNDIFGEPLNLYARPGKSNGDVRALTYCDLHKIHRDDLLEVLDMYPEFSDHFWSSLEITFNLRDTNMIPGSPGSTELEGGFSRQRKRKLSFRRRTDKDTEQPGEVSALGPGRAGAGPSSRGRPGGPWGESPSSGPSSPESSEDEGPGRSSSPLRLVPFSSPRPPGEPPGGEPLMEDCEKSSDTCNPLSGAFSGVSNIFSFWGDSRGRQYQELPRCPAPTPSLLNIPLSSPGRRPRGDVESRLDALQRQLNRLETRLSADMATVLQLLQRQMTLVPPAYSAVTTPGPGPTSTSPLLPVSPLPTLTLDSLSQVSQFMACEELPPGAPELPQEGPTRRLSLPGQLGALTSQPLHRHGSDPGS
Take `O=C(N/N=C/c1ccc(OCC(=O)N2CCOCC2)cc1)c1ccccc1Cl`: the “hERG current change (%, negative = inhibition) at 10uM” value turned out to be 9.74%.
The figure for `CCOCCCNC(=O)C(c1ccc(OC)cc1)N(Cc1cccs1)C(=O)CNC(C)=O` (centres unmarked) is 13.6%; for `Nc1cc(C(F)(F)F)ccc1NCCc1ccccn1` it is 2.35%; for `COc1cccc(CNC(=O)Cn2cc([N+](=O)[O-])cn2)c1` it is 11.9%.
With `CCSc1nnc(NC(=O)c2cc(C)on2)s1`, the “hERG current change (%, negative = inhibition) at 10uM” value came to 9.14%.
As for `CC1CCCCC1NC(=O)C1CCCN(S(=O)(=O)c2ccc(-n3cnnn3)cc2)C1` (centres unmarked), the figure is -43.6%; as for `COC(=O)CCC(=O)OC1(C)C(=O)C=C2C=C(C3CC3)N(C3CC3)C=C2C1=O` (centres unmarked), 13%; as for `CCCCNC(=O)Cn1c(-c2ccc(OC)cc2)noc1=O`, -12.3%.
The figure for `CC1CN(S(=O)(=O)N(C)C)CCN1S(=O)(=O)N(C)C` (centres unmarked) is 3.53%.
As for `COc1cc(OC)c(OC)cc1CNC(=O)c1cc(=O)c2ccccc2o1`, the figure is 8.48%; as for `CCn1cc(CN2CCC(n3nccc3NC(=O)C3CCCC3)CC2)c(C)n1`, -12.4%; as for `CCn1c2ccccc2c2cc(/C(C)=N/O)ccc21`, -4.31%.
As to `Cc1c(C(=O)NCCn2ccc3ccccc32)cccc1[N+](=O)[O-]`, the “hERG current change (%, negative = inhibition) at 10uM” value is on record as -12.1%.
As for `Cc1ccc(NC(=O)COC(=O)CN2C(=O)NC3(CCCC3)C2=O)cc1Cl`, the figure is -5.92%; as for `c1cncc(C2CCCN2)c1` (centres unmarked), 7.12%.
The figure for `O=C(/C(=N/N=C/c1ccc(O)c(O)c1O)c1ccccc1)c1ccccc1` is 4.39%; for `CCN(CC)S(=O)(=O)c1ccc(NC(=O)C(OC)c2ccccc2)cc1` (centres unmarked) it is -10.3%; for `COc1ccc(NS(=O)(=O)c2ccc3oc(=O)ccc3c2)cc1` it is 9.08%.
As for `CCN(CC(=O)Nc1ccc(NC(C)=O)cc1)C(=O)COc1ccccc1-c1ccccc1`, the figure is -17.5%; as for `COc1ccc(CN(CCC(c2ccccc2)c2ccc(OC(C)C)cc2)C(=O)CCl)cc1OC` (centres unmarked), -1.82%.
In the case of `O=C(NC1CCN(c2ncccn2)CC1)c1c(F)cccc1F`, the “hERG current change (%, negative = inhibition) at 10uM” value was 15.8%.
The figure for `O=C(CNC(=O)c1ccc(F)cc1)NCc1ccc(Cl)cc1` is 9.88%.
As for `COc1ccc([C@@H]2Sc3cc(OC)ccc3N(CCN(C(C)C)C(C)C)C(=O)[C@H]2OC(C)=O)cc1.Cl`, the figure is -75%.
The figure for `Cc1ccc(NCC(=O)N/N=C/c2ccncc2)cc1` is 27.7%; for `Cc1ccc(C)c(NC(=O)CSc2nnc([C@@H](N)Cc3ccccc3)o2)c1.Cl` it is -6.03%; for `COc1ccc(S(=O)(=O)N2CCCC2C(=O)Nc2nccs2)cc1` (centres unmarked) it is 6.48%.
As to `Cc1ccc(C(=O)Oc2coc(CSc3nnc(NC(=O)c4cccs4)s3)cc2=O)cc1`, the “hERG current change (%, negative = inhibition) at 10uM” value amounted to 6.03%.
The figure for `Cc1cnccc1CNC(=O)CC1C(=O)NCCN1CC(C)(C)C` (centres unmarked) is -12.5%; for `Brc1ccccc1OCCCOc1cccc2cccnc12` it is 5.67%; for `CCOc1cccc(=[NH+]C2CCCCC2)c2c(C)[nH]c(C)c12.[O-][Cl+3]([O-])([O-])[O-]` it is -70.3%.
As for `CCOc1cc(/C=C/C(=O)O)ccc1OCCOc1ccccc1`, the figure is 7.54%.
As for `CCCC(=O)n1nc(-c2ccc(C)cc2)nc1NCc1ccco1`, the figure is 11.3%; as for `CCOP(=O)(OCC)c1nc(-c2ccc(C)cc2)oc1NCc1ccccc1`, -23.5%.
In the case of `O=C(C(=O)N1CCCCCC1)c1c[nH]c2ccccc12`, the “hERG current change (%, negative = inhibition) at 10uM” value is listed as 13.4%.
For the compound `CCOc1ccc(NCCC(O)c2ccc(F)cc2)cc1` (centres unmarked), the “hERG current change (%, negative = inhibition) at 10uM” value came out at 10.7%.
`O=C1CCCN1CCC1CCN(C2CC(=O)N(Cc3ccc(N4CCCC4=O)cc3)C2=O)CC1` (centres unmarked): the “hERG current change (%, negative = inhibition) at 10uM” value is given as 4.97%.
The figure for `CCOc1cccc(N2C(=O)CC(N3CCN(c4nc5ccccc5s4)CC3)C2=O)c1` (centres unmarked) is 5.09%; for `COc1cccc(NC(=O)N2CCC(C(=O)Nc3ccc(C)cc3C)CC2)c1` it is -1.33%.
As to `CCOC(=O)c1c(NC(=S)NC(=O)c2ccc(Cn3cc(Cl)cn3)o2)sc2c1CCC(C)C2` (centres unmarked), the “hERG current change (%, negative = inhibition) at 10uM” value is on record as 36.7%.
The figure for `COc1ccc(C(=O)NC(Nc2ccccc2)C(Cl)(Cl)Cl)cc1` (centres unmarked) is 9.54%; for `O=C(CSC1=NC(=O)C(c2ccccc2)C(=O)N1)Nc1cccc(Cl)c1` (centres unmarked) it is 19.7%.
As for `CC(C)(C)c1nnc2sc(SCC(=O)N3CCc4ccccc43)nn2c1=O`, the figure is -1.23%; as for `O=C(CCn1nc(-c2ccccc2)ccc1=O)N1CCN(c2ccccc2)CC1`, -11.2%; as for `COc1cc(/C=N/OCC(=O)NC2CCCCC2)ccc1OCc1ccccc1`, -4.13%.
The figure for `CCOc1ccc(NC(=O)CCCCCN2C(=O)[C@@H]3Cc4ccccc4CN3C2=O)cc1` is 2.76%; for `Fc1ccc(C(c2nnnn2Cc2cccs2)N2CCN(C3CCCCC3)CC2)cc1` (centres unmarked) it is -60.3%; for `CCOC(=O)CNC(=O)CSc1ncccc1-c1nc2ccccc2[nH]1` it is -0.362%.
Consider `Cc1nc(Cl)nc(N(C)c2ccccc2)c1[N+](=O)[O-]`, for which the “hERG current change (%, negative = inhibition) at 10uM” value is on record as -3.35%.
As to `Cc1cccc(C(=O)OCC(=O)N2CCC(c3ccccc3)=N2)c1O`, the “hERG current change (%, negative = inhibition) at 10uM” value worked out at 10.1%.
As to `COc1ccc(S(=O)(=O)n2cnc3cc(C)c(C)cc32)cc1`, the “hERG current change (%, negative = inhibition) at 10uM” value came out at 2.4%.
Take `COc1ccc(Nc2cc(Nc3ccccc3)ncn2)cc1`: the “hERG current change (%, negative = inhibition) at 10uM” value was found to be 11.5%.
As for `O=C(OCCN1C(=O)c2ccccc2C1=O)c1ccco1`, the figure is 7.21%; as for `COc1cc(OC)cc(-c2nnc(SCC(=O)NCc3cccs3)o2)c1`, 0.461%; as for `Cc1ccc(C(=O)NN2C(=O)c3ccc(S(=O)(=O)c4ccc(C(=O)O)cc4)cc3C2=O)cc1`, 12.1%.
As for `O=C(COc1ccccc1Cl)NC(=S)Nc1cccc(NC(=O)c2ccccc2Cl)c1`, the figure is 23%; as for `CC(C)(C)c1ccc(C(=O)NCC(=O)N2CCC3(CC2)NCCc2[nH]cnc23)cc1`, 18.4%; as for `CC(C)c1ccccc1NC(=S)NC1CCCCC1`, -0.714%.
The figure for `CCc1ccc(NC(=O)CN(c2ccccc2)S(=O)(=O)N(C)C)cc1` is -5.75%; for `Cc1ccc2[nH]c(=O)c(CN(Cc3ccco3)C(=O)N3CCOCC3)cc2c1` it is -0.449%.
For `O=C(NCCc1ccccc1F)N[C@@H](Cc1ccccc1)C(=O)O`, the “hERG current change (%, negative = inhibition) at 10uM” value was determined as 4.11%.
As for `CN(C(=O)COC(=O)COc1ccc2c(c1)CCC2)c1c(N)n(Cc2ccccc2)c(=O)[nH]c1=O`, the figure is -6.4%; as for `O=C(COC(=O)Cn1cnc2ccccc21)Nc1cccc2c1C(=O)c1ccccc1C2=O`, 5.16%; as for `Cc1ccc(S(=O)(=O)NCCN2CCOCC2)s1`, 11.4%.
On to `CC/C(=N\OC(=O)c1ccc(OC(C)C)cc1)c1ccc(C)cc1`, for which the “hERG current change (%, negative = inhibition) at 10uM” value stood at 16.5%.
As for `CCOc1ccc(Oc2ccc(NS(=O)(=O)c3cc(C(=O)O)ccc3Cl)cc2)cc1`, the figure is 9.19%; as for `CCOC(=O)N1CCN(C(=O)Nc2cccc(Cl)c2)CC1`, 2.81%.
The figure for `C=CCNc1nc(Nc2ccc(Cl)cc2)nc(OC)n1` is -16.7%; for `Cc1ccc(CNC(=O)Nc2ccccc2)c(C)c1` it is 5.7%; for `O=C(O)c1cnc(-c2ccccc2)nc1Oc1ccc(Cl)cc1` it is 15.7%.
Take `O=C1CN(C(=O)N[C@@H](Cc2ccccc2)C(=O)N[C@H](Cc2ccccc2)C(=O)O)c2ccccc2N1`: the “hERG current change (%, negative = inhibition) at 10uM” value is given as 22.4%.
As for `Cc1cc(Cl)ccc1Oc1ncnc2oc(-c3ccccc3)cc12`, the figure is -0.172%; as for `COC(=O)c1ccc(C(=O)OC)c(NC(=S)N2CCCC2)c1`, -2.93%.
As for `CC(=O)Nc1ccc(N=Cc2c(O)n(Cc3ccco3)c(=O)[nH]c2=O)cc1`, the figure is -4.6%.
The figure for `Cc1ccccc1OCC(=O)Nc1ccccc1N1CCC(C)CC1` is 18.3%; for `CCN(CC)CCNC(=O)CNC(=O)c1nn(-c2ccc(OC)cc2OC)c(=O)c2ccccc12` it is -16.1%; for `COc1ccc(CN(C(=O)c2ccc(-c3ccccc3)[nH]2)C(C(=O)NC(C)(C)C)c2ccncc2)cc1` (centres unmarked) it is 1.1%.
Regarding `CCn1cc(CN2CCCC(CO)(Cc3ccc(F)cc3)C2)c2ccccc21` (centres unmarked), the “hERG current change (%, negative = inhibition) at 10uM” value is -32%.
Take `CCN1CCN(Cc2ccc(NC(=O)c3ccc(C)c(NC(=O)c4nccnc4N)c3)cc2C(F)(F)F)CC1`: the “hERG current change (%, negative = inhibition) at 10uM” value is listed as -6.3%.
The figure for `COc1ccc(-n2c(Cc3ccccc3)nnc2SCc2ccc([N+](=O)[O-])cc2)cc1` is -68.4%.
Regarding `O=C1C(NS(=O)(=O)c2cccs2)=C(N2CCN(c3cccc(Cl)c3)CC2)C(=O)c2ccccc21`, the “hERG current change (%, negative = inhibition) at 10uM” value was -14.2%.
As for `Cn1cccc1C(=O)NNC(=O)COc1ccccc1F`, the “hERG current change (%, negative = inhibition) at 10uM” value was 17.8%.
Take `COc1cc(C(=O)OCc2ccc([N+](=O)[O-])cc2)cc(OC)c1OC`: the “hERG current change (%, negative = inhibition) at 10uM” value stood at 2.74%.
The figure for `Br.C#CCOC(=O)C1=CCCN(C)C1` is 8.29%; for `COc1ccc(-c2ccc(SCC(=O)Nc3cc(C)on3)nn2)cc1OC` it is -8.61%.
Regarding `COc1ccc(C)cc1NC(=O)n1ncc2cc(Cl)ccc21`, the “hERG current change (%, negative = inhibition) at 10uM” value is reported as 15.9%.
The figure for `O=C(O)c1cccc2c1C(=O)c1ccc(-c3ccc(F)cc3OCc3ccccc3)cc1S2(=O)=O` is 9.57%.
